Source: PubChem BioAssay AID1768 (National Center for Advancing Translational Sciences (NCATS), 2009)
The campaign covered roughly 270,000 compounds. About 620 (0.23%) were called active. This list was built around the results that the source calls inconclusive (neither active nor inactive); the mix of calls is not that of the screen. Calls come from the whole dose curve; as a rule, active = well fitted inhibition curve with a large enough effect in the polarisation, with a control signal flat (not every such curve was filed as active); inconclusive = small, poorly fitted or top-dose-only effect, or effect the other way, or a change in a side signal; inactive = no such curve, though single readings can be large or run the other way; the % refers to the polarisation. A potency beside an inconclusive call is a rough fit, not a confirmed value. “Side channel” marks fits to a control or component signal instead of the main read-out.

Molecular target: Menin (Homo sapiens) (UniProt O00255)
Assay: qHTS Assay for Inhibitors Targeting the Menin-MLL Interaction in MLL Related Leukemias: Competition With Texas Red Labeled MLL-derived Mutant Peptide; for FP activity change, negative = inhibition: % of control where 0% means no effect
Settings: fluorescence polarization; FP activity change, negative = inhibition: at 61.6 µM (top of the series)
Potency is the fitted concentration of half-maximal effect; tags give direction and shape of the fitted curve or compound fluorescence and quenching.

Sequence of UniProt O00255 (O00255 whole entry, looked up): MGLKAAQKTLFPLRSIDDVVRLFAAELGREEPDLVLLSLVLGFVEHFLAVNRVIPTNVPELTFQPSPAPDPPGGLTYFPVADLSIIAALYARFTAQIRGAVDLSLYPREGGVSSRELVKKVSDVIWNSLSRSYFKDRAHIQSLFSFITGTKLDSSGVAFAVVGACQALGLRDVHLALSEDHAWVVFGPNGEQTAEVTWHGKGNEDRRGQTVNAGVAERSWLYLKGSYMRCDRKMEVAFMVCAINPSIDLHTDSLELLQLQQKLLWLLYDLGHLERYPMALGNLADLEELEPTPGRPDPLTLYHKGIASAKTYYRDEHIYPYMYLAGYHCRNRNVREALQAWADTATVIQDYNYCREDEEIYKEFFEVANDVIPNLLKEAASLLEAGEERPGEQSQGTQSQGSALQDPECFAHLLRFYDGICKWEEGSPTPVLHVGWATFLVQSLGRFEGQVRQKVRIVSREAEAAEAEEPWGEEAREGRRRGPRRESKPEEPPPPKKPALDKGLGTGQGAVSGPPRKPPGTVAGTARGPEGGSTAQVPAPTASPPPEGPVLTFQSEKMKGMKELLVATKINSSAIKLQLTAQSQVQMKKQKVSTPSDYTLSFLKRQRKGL

Potency, active:
CCCCCCCCCCCCCCCCn1cc[n+](Cc2ccccc2)c1C 22.4 µM

Potency, inconclusive:
O=C(Nc1ccc(Cl)cc1)Nc1cccnc1 31.6 µM [quencher, side channel, single point]
O=C(O)c1cc(N2N=C(C(F)(F)F)/C(=C/C=C/c3ccco3)C2=O)ccc1Cl 35.5 µM [quencher, side channel, single point]
COc1cccc(/C=C/C(=O)Nc2ccc3c(c2)OCCO3)c1 15.8 µM [quencher, side channel, partial curve]
O=c1[nH]c2cc3c(cc2cc1CN(Cc1ccc2c(c1)OCO2)Cc1nnnn1CC1CCCO1)OCO3 (stereo unspecified) 1.41 µM [inhibitor, partial curve]
COc1ccccc1CN1CC(C(=O)N2CCN(c3ccc(F)cc3)CC2)CC1=O (stereo unspecified) 39.8 µM [inhibitor, single point]
CN(C)C(=O)C(OC(=O)c1ccc2c(c1)CCCC2)c1ccccc1 (stereo unspecified) 17.8 µM [fluorescent, side channel, partial curve]
CC(=O)c1ccccc1OCC(O)Cn1ccnc1 (stereo unspecified) 39.8 µM [inhibitor, single point]
O=C(Nc1ccc(N2CCCC2)c(S(=O)(=O)Nc2cccc(C(F)(F)F)c2)c1)c1cccs1 7.08 µM [quencher, side channel, partial curve]
CSCC[C@H](NC(=O)Cc1c(C)c2cc3c4c(oc3cc2oc1=O)CCCC4)C(=O)O 39.8 µM [inhibitor, single point]
O=S(=O)(Nc1nc2ccccc2nc1N1CCN(c2ccccc2F)CC1)c1ccc(Cl)cc1 14.1 µM [quencher, side channel, partial curve]
COc1ccc(O)c(/C=N/NC(=S)NCCc2ccccc2)c1 22.4 µM [quencher, side channel, single point]
O=C(NNc1c2ccccc2nc2ccccc12)c1ccccc1Cl 28.2 µM [quencher, side channel, single point]
Cc1ccc(S(=O)(=O)N(CC(=O)Nc2ccccc2C(=O)O)c2cccc(Cl)c2C)cc1 15.8 µM [quencher, side channel, partial curve]
CCOc1ccc(OCc2ccc(C(=O)N3CCCC(C)C3)cc2)cc1 (stereo unspecified) 35.5 µM [inhibitor, partial curve]
N#Cc1cnn(-c2nc3sc4c(c3c(=O)[nH]2)CCCC4)c1N 25.1 µM [quencher, side channel, single point]
O=C(CN1C(=O)S/C(=C\c2ccccc2F)C1=O)Nc1ccccc1O 22.4 µM [quencher, side channel, single point]
COc1cc(C(=O)N/N=C/c2ccc(OC(=O)c3ccccc3)c(OC)c2)ccc1O 22.4 µM [quencher, side channel, partial curve]
O=C(COc1ccc2c3c(c(=O)oc2c1)CCC3)NC1CCCCC1 12.6 µM [fluorescent, side channel, partial curve]
COc1ccc(OCC(O)Cn2c(=N)n(Cc3ccccc3)c3ccccc32)cc1 (stereo unspecified) 10 µM [inhibitor, partial curve]
CCC(=O)Nc1nc(C)c(C(=O)Nc2cccc(Cl)c2)s1 35.5 µM [quencher, side channel, single point]
COc1ccc(OCc2nc3c4cc(OC)c(OC)cc4nc(=S)n3[nH]2)cc1 22.4 µM [quencher, side channel, single point]
NS(=O)(=O)c1ccc(Nc2nc(-c3ccc(O)cc3O)cs2)cc1 28.2 µM [quencher, side channel, partial curve]
COc1ccc(CCNC(=O)CN(c2ccccc2OC)S(=O)(=O)c2ccc(C)cc2)cc1 0.631 µM [inhibitor, full curve]
C=CCSc1nnc2n(CCc3ccccc3)c(=O)c3c4c(sc3n12)COC(C)(C)C4 5.62 µM [fluorescent, side channel, full curve]
CC(=O)Nc1ccc(NC2=CC(=O)c3ccccc3C2=O)cc1 20 µM [quencher, side channel, partial curve]
O=C(Nc1ccc([N+](=O)[O-])cc1)c1nc[nH]c1C(=O)NC1CCCCC1 10 µM [quencher, side channel, partial curve]
CCC(=O)c1ccc2c(c1)N(CCCN(C)C)c1ccccc1S2 15.8 µM [fluorescent, side channel, partial curve]
c1ccc(CNc2nc(-c3ccccc3)nc3ccccc23)cc1 39.8 µM [quencher, side channel, single point]
Clc1c(-c2nnc3n2CCC3)sc2ccccc12 25.1 µM [inhibitor, partial curve, poor fit]
CCN(CC)CCNC(=O)c1ccc(N2CCCCC2)c(NS(=O)(=O)c2ccc(C)cc2)c1 39.8 µM [inhibitor, partial curve]
O=[N+]([O-])c1ccc(-c2ccc(/C=N/Nc3nc(NCc4ccccc4)nc(N4CCOCC4)n3)o2)cc1 10 µM [quencher, side channel, partial curve]
COC(=O)c1ccc(NC(=O)COc2ccc(C3C(C#N)=C(N)Oc4c3ccc3ccccc43)cc2OC)cc1 (stereo unspecified) 22.4 µM [inhibitor, partial curve]

FP activity change, negative = inhibition, inactive:
CCN[C@@H]1CN(CCCOC)S(=O)(=O)c2sc(S(N)(=O)=O)cc21 5.89% [at 24.8 µM]
CC(C)CCC[C@@H](C)[C@H]1CC[C@H]2[C@@H]3CC=C4CC(O)CC[C@]4(C)[C@H]3CC[C@]12C (stereo partly specified) -3.46%
CC1=C(C)C[C@@]23CCCN2C(=O)CCC[C@H]3C1 6.3% [at 138 µM]
